The nature of the test: qHTS Assay for Lipid Storage Modulators (AID 1519). The settings on record: Drosophila S3 cells, BODIPY lipid droplet/cell ratio, laser cytometry, cells loaded with oleic acid. An outline of the steps:
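Cells seeded at 5,000 per well were treated with compounds over a concentration series and loaded with oleic acid (400 uM, as added). Lipid droplet fluorescence (488 nm excitation, 500-530 nm channel) was read by laser-scanning cytometry and normalized to 20 uM Triacsin C.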
In general terms: In qHTS, concentration-response curves come from the screen itself.

Setting [1] is: measured here: cell count channel max response.
Setting [2] is: measured here: cell number channel AC50.
[3] abbreviates: measured here: lipid (BODIPY) channel AC50.
The mark [4] stands for this setting: measured here: lipid channel max response.

Where “and” joins values, the source holds several entries; their conditions need not be identical. Equal values may be shown once. The list shows a part of the results. These are further read-outs of the screen, such as a control signal, another cell line or another target. No call is given for them. Compounds called inactive in the main read-out are mostly missing here. Words in brackets tell the shape of the fitted curve; partial curves, single points and poor fits give uncertain potencies.
Tags give direction and shape of the fitted curve.

One may read the AC50 as the concentration at which the activity in the assay is half-maximal. Take `CCNc1ncc2nc(-c3ccccc3)c(=O)n(CCOC)c2n1`: the max response under setting [1] was 35.6% and the max response under setting [4] was 23.8%. Besides, the AC50 runs as follows: under setting [2], 2 µM [rising, full curve]; under setting [3], 1.12 µM [rising, full curve, poor fit].
Take `COc1ccc(C(OCCN2CCC[C@@H](C(=O)O)C2)(c2ccc(OC)cc2)c2ccc(OC)cc2)cc1`: the max response is, setting by setting: under setting [1], 53.7%; under setting [4], 75.4%. In addition, the half-maximal activity concentration (AC50) by setting is: under setting [2], 14.1 µM [rising, partial curve, poor fit]; under setting [3], 14.1 µM [rising, partial curve, poor fit].
Take `Cc1noc(C)c1C(=O)N1CCC2(CCCN(c3ccccn3)C2)CC1`: the max response is, setting by setting: under setting [1], 28.4%; under setting [4], 36.7%. Moreover, the half-maximal activity concentration (AC50) reads like this: under setting [2], 1 µM [rising, partial curve, poor fit]; under setting [3], 0.282 µM [rising, partial curve, poor fit].
In the case of `COc1cc2c(CCNC(C)=O)c[nH]c2cc1Cl`, the max response is, setting by setting: under setting [1], 80.8%; under setting [4], 113%. Moreover, the AC50 was 11.2 µM [rising, partial curve] under setting [2] and 14.1 µM [rising, partial curve] under setting [3].
On to `Cc1cnc(CNc2ccnc(-c3ccccc3C)n2)cn1`, for which the max response by setting is: under setting [1], 43.4%; under setting [4], 51.5%. In addition, the concentration at half-maximal activity (AC50) is, setting by setting: under setting [2], 17.8 µM [rising, single point]; under setting [3], 15.8 µM [rising, partial curve].
`COc1ccc2[nH]cc(CCNc3cc(-c4ccc(C(=O)N(C)C)cc4)ncn3)c2c1`: the max response by setting is: under setting [1], 23.8%; under setting [4], 28.1%. The AC50 is 0.631 µM [rising, partial curve] under setting [2] and 0.316 µM [rising, full curve] under setting [3].
For the compound `OCC1NCC(O)C(O)C1O` (stereo not drawn), the max response by setting is: under setting [1], 36.7%; under setting [4], 40.4%. Moreover, the AC50 runs as follows: under setting [2], 0.316 µM [falling, full curve, poor fit]; under setting [3], 0.355 µM [falling, full curve, poor fit].
Regarding `CCCCCCCCCCCCC[N+](C)(C)Cc1ccccc1`, the max response runs as follows: under setting [1], -41.4%; under setting [4], -86%. The concentration at half-maximal activity (AC50) under setting [2] is 14.1 µM [falling, partial curve, poor fit] and the AC50 under setting [3] was 7.94 µM [falling, full curve].
`NC(Cc1cnc[nH]1)C(=O)Nc1ccc2ccccc2c1` (stereo not drawn): the max response runs as follows: under setting [1], 37%; under setting [4], 47.3%. Also, the half-maximal activity concentration (AC50) under setting [2] is 2 µM [rising, partial curve, poor fit] and the half-maximal activity concentration (AC50) under setting [3] was 5.01 µM [rising, partial curve, poor fit].
With `CN(C)C(=O)c1ccc(-c2cncnc2Nc2ccccc2)cc1`, the max response reads like this: under setting [1], 20.5%; under setting [4], 24.6%. In addition, the half-maximal activity concentration (AC50) is, setting by setting: under setting [2], 0.501 µM [rising, full curve]; under setting [3], 0.631 µM [rising, full curve].
For `COCCn1c(=O)c(CCc2ccccc2)nc2cnc(Nc3ccccc3)nc21`, the max response under setting [1] is 0.111% and the max response under setting [4] worked out at 5.73%. Besides, the concentration at half-maximal activity (AC50) under setting [2] is 1.78 µM [rising, partial curve] and the concentration at half-maximal activity (AC50) under setting [3] was 1.78 µM [rising, partial curve].
For the compound `COc1ccc2[nH]cc(CCNc3nc(-c4ccccc4OC)nc4ccccc34)c2c1`, the max response by setting is: under setting [1], 2.7%; under setting [4], 1.95%. Also, the AC50 under setting [2] was 0.126 µM [rising, full curve, poor fit] and the AC50 under setting [3] was 0.126 µM [rising, full curve, poor fit].
Consider `Cc1noc(C)c1-c1ccc2ncnc(Nc3ccccc3)c2c1`, for which the max response by setting is: under setting [1], 32.7%; under setting [4], 45.1%. The AC50 by setting is: under setting [2], 6.31 µM [rising, partial curve, poor fit]; under setting [3], 6.31 µM [rising, partial curve, poor fit].
On to `O=c1c(-c2ccccc2)nc2cncnc2n1Cc1ccc(F)cc1`, for which the max response came to 16.9% under setting [1] and 22.4% under setting [4]. For the same compound, the AC50 is, setting by setting: under setting [2], 0.0631 µM [rising, full curve, poor fit]; under setting [3], 0.0631 µM [rising, full curve, poor fit].
In the case of `COc1cc(Cc2cnc(N)nc2N)cc(OC)c1OC`, the max response is 42.4% and 25.5% and 46.6% under setting [1]; 37.4% and 37.1% and 43.3% under setting [4]. Further, the concentration at half-maximal activity (AC50) was 0.708 µM [rising, full curve, poor fit] under setting [2] and 20 µM [rising, partial curve, poor fit] under setting [3].
For the compound `CN1CCN(c2ncc3nc(-c4cn(C)c5ccccc45)c(=O)n(CCC#N)c3n2)CC1`, the max response is, setting by setting: under setting [1], 16.4%; under setting [4], 18.2%. For the same compound, the concentration at half-maximal activity (AC50) under setting [2] was 1.58 µM [rising, partial curve, poor fit] and the AC50 under setting [3] is 1.12 µM [rising, full curve, poor fit].
In the case of `O=c1c(-c2ccc(F)cc2)nc2cnc(N3CCOCC3)nc2n1CCc1ccccc1`, the max response runs as follows: under setting [1], 16.9%; under setting [4], 26%. Besides, the concentration at half-maximal activity (AC50) is 1.58 µM [rising, full curve, poor fit] under setting [2] and 1.58 µM [rising, full curve, poor fit] under setting [3].
Consider `O=C(/C=C/c1ccc(OCc2ccccc2)cc1)c1cccs1`, for which the max response came out at 55.6% under setting [1] and 85.4% under setting [4]. Besides, the AC50 by setting is: under setting [2], 12.6 µM [rising, partial curve, poor fit]; under setting [3], 11.2 µM [rising, full curve].
In the case of `COc1ccc(C2OCC3(COC(C)=O)C(C)C=C(C)C2C3C)cc1` (stereo not drawn), the max response is, setting by setting: under setting [1], 56%; under setting [4], 68.4%. For the same compound, the AC50 is, setting by setting: under setting [2], 35.5 µM [rising, single point]; under setting [3], 35.5 µM [rising, partial curve, poor fit].
Take `COC(=O)C1=C(C)NC(C)=C([N+](=O)[O-])[C@H]1c1ccccc1C(F)(F)F`: the max response under setting [1] was 74.4% and the max response under setting [4] amounted to 86.2%. Besides, the AC50 by setting is: under setting [2], 7.08 µM [rising, full curve]; under setting [3], 7.08 µM [rising, full curve].
In the case of `COCCn1c(=O)c(-c2ccc(Cl)cc2)nc2cncnc21`, the max response reads like this: under setting [1], 27.6%; under setting [4], 44.6%. Further, the half-maximal activity concentration (AC50) under setting [2] is 0.1 µM [rising, full curve, poor fit] and the AC50 under setting [3] was 0.112 µM [rising, full curve].
Consider `N=C(N)S/C=C\C(=O)O`, for which the max response was 32.9% under setting [1] and 42.3% under setting [4]. Further, the AC50 is, setting by setting: under setting [2], 7.08 µM [rising, partial curve, poor fit]; under setting [3], 8.91 µM [rising, full curve, poor fit].
As for `O=C(/C=C/c1ccc(O)cc1)c1cccs1`, the max response is, setting by setting: under setting [1], 97.2%; under setting [4], 115%. Also, the concentration at half-maximal activity (AC50) is, setting by setting: under setting [2], 15.8 µM [rising, partial curve, poor fit]; under setting [3], 15.8 µM [rising, partial curve, poor fit].
With `CC[C@@H](C)[C@H]1O[C@]2(CC[C@@H]1C)C[C@@H]1C[C@H](C/C=C(/C)[C@H](O[C@@H]3C[C@H](OC)[C@H](O[C@@H]4C[C@H](OC)[C@@H](O)[C@H](C)O4)[C@H](C)O3)[C@@H](C)/C=C\C=C3CO[C@@H]4[C@H](O)C(C)=C[C@@H](C(=O)O1)[C@]34O)O2` (tested in a mixture with another compound), the max response was -45.2% under setting [1] and -49.3% under setting [4]. Besides, the AC50 reads like this: under setting [2], 3.16 µM [rising, full curve, poor fit]; under setting [3], 2.82 µM [rising, full curve, poor fit].
Consider `COc1cc(O)c2c(=O)cc(-c3ccc(OC)c(-c4c(O)cc(O)c5c(=O)cc(-c6ccc(O)cc6)oc45)c3)oc2c1`, for which the max response under setting [1] is -43.5% and the max response under setting [4] was -34.6%. Further, the half-maximal activity concentration (AC50) under setting [2] was 35.5 µM [falling, single point] and the AC50 under setting [3] was 39.8 µM [falling, single point].
For `Cc1noc(C)c1-c1ccc2ncnc(NCCN3CCOCC3)c2c1`, the max response is, setting by setting: under setting [1], 32%; under setting [4], 28.9%. In addition, the AC50 is 2 µM [rising, full curve, poor fit] under setting [2] and 2 µM [rising, full curve, poor fit] under setting [3].
Consider `Cn1cc(-c2nc3cncnc3n(-c3ccccc3)c2=O)c2ccccc21`, for which the max response is, setting by setting: under setting [1], 28.6%; under setting [4], 14.7%. Further, the half-maximal activity concentration (AC50) runs as follows: under setting [2], 0.708 µM [rising, full curve, poor fit]; under setting [3], 0.708 µM [rising, full curve, poor fit].
Take `FC(F)(F)c1ccccc1-c1cncnc1NCc1cccnc1`: the max response is, setting by setting: under setting [1], 37.3%; under setting [4], 47.3%. Further, the concentration at half-maximal activity (AC50) was 0.501 µM [rising, full curve] under setting [2] and 0.631 µM [rising, full curve] under setting [3].
`CSc1nc(N)c2ncn([C@@H]3O[C@H](COP(=O)(O)OP(=O)(O)O)[C@H](O)[C@H]3O)c2n1`: the max response is -20% under setting [1] and -21.4% under setting [4]. Besides, the AC50 under setting [2] is 0.00794 µM [falling, full curve, poor fit] and the concentration at half-maximal activity (AC50) under setting [3] is 0.00794 µM [falling, full curve, poor fit].
For the compound `COCCn1c(=O)c(-c2ccccc2)nc2cnc(N3CCOCC3)nc21`, the max response is, setting by setting: under setting [1], 18.7%; under setting [4], 25.9%. Also, the AC50 was 0.178 µM [rising, full curve, poor fit] under setting [2] and 0.282 µM [rising, full curve, poor fit] under setting [3].
`COc1ccc(Oc2ncc3ncc(=O)n(CCC#N)c3n2)cc1`: the max response is, setting by setting: under setting [1], 24.3%; under setting [4], 33.3%. The AC50 was 0.112 µM [rising, full curve, poor fit] under setting [2] and 0.0501 µM [rising, full curve] under setting [3].
In the case of `CC(C)OC(=O)c1cc2c(OC[C@@H](O)CNC(C)(C)C)cccc2[nH]1`, the max response was found to be 44.5% under setting [1] and 53.6% under setting [4]. The AC50 is 28.2 µM [rising, partial curve, poor fit] under setting [2] and 31.6 µM [rising, partial curve, poor fit] under setting [3].
With `N#CCCn1c(=O)c(CCc2ccccc2)nc2cnc(Nc3ccccc3)nc21`, the max response under setting [1] came out at 31.8% and the max response under setting [4] was determined as 35.7%. The concentration at half-maximal activity (AC50) runs as follows: under setting [2], 0.447 µM [rising, partial curve]; under setting [3], 0.447 µM [rising, full curve, poor fit].
For the compound `COc1ccc(Oc2ncc3nc(-c4ccccc4)c(=O)n(CCC#N)c3n2)cc1`, the max response reads like this: under setting [1], -0.229%; under setting [4], 2.19%. In addition, the AC50 is 1 µM [rising, partial curve, poor fit] under setting [2] and 1.12 µM [rising, partial curve] under setting [3].
Turning to `COC(=O)C(C)(N)Cc1ccc(O)cc1` (stereo not drawn), the max response reads like this: under setting [1], 36.2%; under setting [4], 35.8%. Further, the concentration at half-maximal activity (AC50) is 5.01 µM [falling, partial curve, poor fit] under setting [2] and 2.51 µM [falling, full curve, poor fit] under setting [3].
With `CCNc1ncc2nc(-c3ccccc3)c(=O)n(Cc3cccc(OC)c3)c2n1`, the max response stood at 23.9% under setting [1] and 27% under setting [4]. Also, the concentration at half-maximal activity (AC50) runs as follows: under setting [2], 1 µM [rising, full curve, poor fit]; under setting [3], 1 µM [rising, full curve, poor fit].
As for `Cc1noc(C)c1-c1nccc(NCc2cccs2)n1`, the max response runs as follows: under setting [1], 3.03%; under setting [4], 12.8%. Also, the half-maximal activity concentration (AC50) reads like this: under setting [2], 1 µM [rising, partial curve]; under setting [3], 0.398 µM [rising, full curve, poor fit].

Values taken from PubChem BioAssay (NCATS).
